Some of the results follow.
Assays:
Assay in all cases: glycan array binding signal (z-score within array); higher = stronger binding
Details in all cases: glycan notation: IUPAC condensed, linker removed
[1] = molecular target: Gal3S(b1-3)[Fuc(a1-4)]GlcNAc
Outline: (§1)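 Negative Z-scores can be read as non-binding. The Z-score is calculated within each array and then averaged across arrays of one protein sequence at different concentrations or buffers and across linkers. Arrays, 3228 in all, were curated from the Consortium for Functional Glycomics database and kept only where the protein sequence was available.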

Gal3S(b1-4)Glc = molecular target: Gal3S(b1-4)Glc
Outline: as §1

Gal3S(b1-4)Glc6S = molecular target: Gal3S(b1-4)Glc6S
Outline: as §1

Gal3S(b1-4)GlcNAc = molecular target: Gal3S(b1-4)GlcNAc
Outline: as §1

[2] = molecular target: Gal3S(b1-4)[Fuc(a1-3)]Glc6S
Outline: as §1

[3] = molecular target: Gal3S(b1-4)[Fuc(a1-3)]GlcNAc
Outline: as §1

[4] = molecular target: Gal3S(b1-4)[Fuc(a1-3)]GlcNAc6S
Outline: as §1

Gal3S4S(b1-4)GlcNAc = molecular target: Gal3S4S(b1-4)GlcNAc
Outline: as §1

Gal3S6S(b1-4)GlcNAc = molecular target: Gal3S6S(b1-4)GlcNAc
Outline: as §1

Gal3S6S(b1-4)GlcNAc6S = molecular target: Gal3S6S(b1-4)GlcNAc6S
Outline: as §1

Gal4S(b1-4)GlcNAc = molecular target: Gal4S(b1-4)GlcNAc
Outline: as §1

Gal4S6S(b1-4)GlcNAc = molecular target: Gal4S6S(b1-4)GlcNAc
Outline: as §1

Gal6P(b1-4)GlcNAc = molecular target: Gal6P(b1-4)GlcNAc
Outline: as §1

Gal6S(b1-3)GlcNAc = molecular target: Gal6S(b1-3)GlcNAc
Outline: as §1

Gal6S(b1-3)GlcNAc6S = molecular target: Gal6S(b1-3)GlcNAc6S
Outline: as §1

Gal6S(b1-4)Glc = molecular target: Gal6S(b1-4)Glc
Outline: as §1

Gal6S(b1-4)Glc6S = molecular target: Gal6S(b1-4)Glc6S
Outline: as §1

Gal6S(b1-4)GlcNAc = molecular target: Gal6S(b1-4)GlcNAc
Outline: as §1

Gal6S(b1-4)GlcNAc6S = molecular target: Gal6S(b1-4)GlcNAc6S
Outline: as §1

GalNAc(a1-3)Gal = molecular target: GalNAc(a1-3)Gal
Outline: as §1

GalNAc(a1-3)GalNAc = molecular target: GalNAc(a1-3)GalNAc
Outline: as §1

[5] = molecular target: GalNAc(a1-3)GalNAc(b1-3)Gal(a1-4)Gal(b1-4)Glc
Outline: as §1

[6] = molecular target: GalNAc(a1-3)GalNAc(b1-3)Gal(a1-4)Gal(b1-4)GlcNAc
Outline: as §1

GalNAc(b1-3)Gal = molecular target: GalNAc(b1-3)Gal
Outline: as §1

[7] = molecular target: GalNAc(b1-3)Gal(a1-4)Gal(b1-4)GlcNAc
Outline: as §1

[8] = molecular target: GalNAc(b1-3)Gal(a1-4)Gal(b1-4)GlcNAc(b1-3)Gal(b1-4)Glc
Outline: as §1

[9] = molecular target: GalNAc(b1-3)Gal(a1-6)Gal(b1-4)Glc
Outline: as §1

GalNAc(b1-3)GalNAc = molecular target: GalNAc(b1-3)GalNAc
Outline: as §1

GalNAc(b1-3)GlcNAc = molecular target: GalNAc(b1-3)GlcNAc
Outline: as §1

GalNAc(b1-4)Gal(b1-4)Glc = molecular target: GalNAc(b1-4)Gal(b1-4)Glc
Outline: as §1

GalNAc(b1-4)GlcNAc = molecular target: GalNAc(b1-4)GlcNAc
Outline: as §1

[10] = molecular target: GalNAc(b1-4)GlcNAc(b1-2)Man
Outline: as §1

[11] = molecular target: GalNAc(b1-4)GlcNAc(b1-2)Man(a1-3)[GalNAc(b1-4)GlcNAc(b1-2)Man(a1-6)]Man(b1-4)GlcNAc(b1-4)GlcNAc
Outline: as §1

[12] = molecular target: GalNAc(b1-4)GlcNAc(b1-3)GalNAc(b1-4)GlcNAc
Outline: as §1

GalNAc(b1-4)GlcNAc6S = molecular target: GalNAc(b1-4)GlcNAc6S
Outline: as §1

GalNAc(b1-6)GalNAc = molecular target: GalNAc(b1-6)GalNAc
Outline: as §1

GalNAc3S(b1-4)GlcNAc = molecular target: GalNAc3S(b1-4)GlcNAc
Outline: as §1

GalNAc3S(b1-4)GlcNAc3S = molecular target: GalNAc3S(b1-4)GlcNAc3S
Outline: as §1

[13] = molecular target: GalNAc3S(b1-4)[Fuc(a1-3)]GlcNAc
Outline: as §1

GalNAc4S6S(b1-4)GlcNAc = molecular target: GalNAc4S6S(b1-4)GlcNAc
Outline: as §1

GalNAc6S(b1-4)GlcNAc = molecular target: GalNAc6S(b1-4)GlcNAc
Outline: as §1

Glc(a1-4)Glc = molecular target: Glc(a1-4)Glc
Outline: as §1

[14] = molecular target: Glc(a1-4)Glc(a1-4)Glc(a1-4)Glc
Outline: as §1

Glc(a1-6)Glc(a1-6)Glc = molecular target: Glc(a1-6)Glc(a1-6)Glc
Outline: as §1

[15] = molecular target: Glc(a1-6)Glc(a1-6)Glc(a1-6)Glc
Outline: as §1

B1: Epa3 (Candida glabrata), Q6VBI8_CANGB (protein)
chain: MGSSHHHHHHSSGLVPRGSHMNDLGFSLFEKRELSSQNPFGYPIGCSPQDVAIIPGLTMELYSYPIVSGTPPNCYDASYVDPEYPRTGYLKRKMVGKSTGVTGNLNYKYSVEKACMVKYGNLPAGYNYNEPLTVSNFTMILYGYFKAQTTGLHTFFVNADDLLYINFGAGNAFDCCKREDSKTKLGEYVAYDIWHVDSSKNKVSLFLEKDLYYPIRMFFNNIGKDSSLDLSFSVNGATDQISDFSGYLYSVPDQPDTCPAHIGYDTTCR
[1]
  glycan array binding signal (z-score): -0.197
Gal3S(b1-4)Glc
  glycan array binding signal (z-score): -0.114
Gal3S(b1-4)Glc6S
  glycan array binding signal (z-score): -0.161
Gal3S(b1-4)GlcNAc
  glycan array binding signal (z-score): -0.135
[2]
  glycan array binding signal (z-score): 0.312
[3]
  glycan array binding signal (z-score): -0.159
[4]
  glycan array binding signal (z-score): -0.189
Gal3S4S(b1-4)GlcNAc
  glycan array binding signal (z-score): 0.01
Gal3S6S(b1-4)GlcNAc
  glycan array binding signal (z-score): -0.123
Gal3S6S(b1-4)GlcNAc6S
  glycan array binding signal (z-score): -0.106
Gal4S(b1-4)GlcNAc
  glycan array binding signal (z-score): -0.172
Gal4S6S(b1-4)GlcNAc
  glycan array binding signal (z-score): -0.088
Gal6P(b1-4)GlcNAc
  glycan array binding signal (z-score): -0.185
Gal6S(b1-3)GlcNAc
  glycan array binding signal (z-score): -0.145
Gal6S(b1-3)GlcNAc6S
  glycan array binding signal (z-score): -0.07
Gal6S(b1-4)Glc
  glycan array binding signal (z-score): -0.251
Gal6S(b1-4)Glc6S
  glycan array binding signal (z-score): 0.114
Gal6S(b1-4)GlcNAc
  glycan array binding signal (z-score): -0.31
Gal6S(b1-4)GlcNAc6S
  glycan array binding signal (z-score): 0.045
GalNAc(a1-3)Gal
  glycan array binding signal (z-score): -0.141
GalNAc(a1-3)GalNAc
  glycan array binding signal (z-score): -0.222
[5]
  glycan array binding signal (z-score): -0.375
[6]
  glycan array binding signal (z-score): -0.337
GalNAc(b1-3)Gal
  glycan array binding signal (z-score): -0.241
[7]
  glycan array binding signal (z-score): -0.044
[8]
  glycan array binding signal (z-score): -0.166
[9]
  glycan array binding signal (z-score): -0.27
GalNAc(b1-3)GalNAc
  glycan array binding signal (z-score): -0.13
GalNAc(b1-3)GlcNAc
  glycan array binding signal (z-score): -0.122
GalNAc(b1-4)Gal(b1-4)Glc
  glycan array binding signal (z-score): -0.183
GalNAc(b1-4)GlcNAc
  glycan array binding signal (z-score): 0.034
[10]
  glycan array binding signal (z-score): -0.177
[11]
  glycan array binding signal (z-score): 0.289
[12]
  glycan array binding signal (z-score): -0.292
GalNAc(b1-4)GlcNAc6S
  glycan array binding signal (z-score): -0.392
GalNAc(b1-6)GalNAc
  glycan array binding signal (z-score): -0.16
GalNAc3S(b1-4)GlcNAc
  glycan array binding signal (z-score): -0.277
GalNAc3S(b1-4)GlcNAc3S
  glycan array binding signal (z-score): -0.232
[13]
  glycan array binding signal (z-score): -0.415
GalNAc4S6S(b1-4)GlcNAc
  glycan array binding signal (z-score): -0.292
GalNAc6S(b1-4)GlcNAc
  glycan array binding signal (z-score): -0.265
Glc(a1-4)Glc
  glycan array binding signal (z-score): -0.246
[14]
  glycan array binding signal (z-score): -0.306
Glc(a1-6)Glc(a1-6)Glc
  glycan array binding signal (z-score): -0.123
[15]
  glycan array binding signal (z-score): -0.108

— the supplement of paper PMC8728848
